Reference: paper PMC12136788
This is one part of the list.

B1: chrX:152971868:152971969:+|3pUTR|ENSG00000147394|unk|FALSE|unique (ssRNA)
RNA: GGGAGUUCUACAGUCCGACGAUCUUCCCUUACAGGUAUGUUGGCAUGUGUUGGAAAAUUUACACAAUUAGGUUUAAAUUCAGUAGGAUGUGAUUUUAGGAUGCUACUGAUCAAAGUGAUAUCUGUGUCUGUUGGAAUCUUGAUCAACAGAGGAUUGAGCAUCA
B2: chr11:95166718:95166819:-|3pUTR|ENSG00000149212|unk|FALSE|unique (ssRNA)
RNA: GGGAGUUCUACAGUCCGACGAUCACAGUUUCCCCUUCCUCUUUCUCUUCACAUUUACUCUUUUCAACCCAAAAUAAGAGACAUAGAAAGCAAACCACAGCCAGUUUGGCAUCUUCUCAGUGCUACUAGUAUAGGCACAUACACCAACAGAGGAUUGAGCAUCA
B3: chr1:89933607:89933717:+|CDS|ENSG00000171492|unk|total|mutant (ssRNA)
RNA: GGGAGUUCUACAGUCCGACGAUCCAACUUUUGGUUCAAAUAUCCCAAAACAUGCUCAAAAGCCGAACAUUUUGUUUCAAUAUCCGGAAAGUGCUUUGAAUCCCCUUGGACGACAAAAGCGUUGUCUGAGACAGCAUGCGAAGACAACAGAGGAUUGAGCAUCA
B4: chr15:60347444:60347559:-|3pUTR|ENSG00000182718|msi1_unk|FALSE|overlapping (ssRNA)
RNA: GGGAGUUCUACAGUCCGACGAUCUAACAGUCCCCGUGGCCAUCCCUGUGAGGGUGACGUUAGCAUUACCCCCAACCUCAUUUUAGUUGCCUAAGCAUUGCCUGGCCUUCCUGUCUAGUCUCUCCUGUAAGCCAAAGAAAUGAACAACAGAGGAUUGAGCAUCA
B5: ENSG00000070961:be:win_2301|CDS|ENSG00000070961|bound_else_gene|NA|bound_elsewhere_windowed (ssRNA)
RNA: GGGAGUUCUACAGUCCGACGAUCAUCAUCUCCUACUGAUAAGCAUACACUGGUUAAAGGUAUAAUUGACAGCACUGUCUCAGACCAACGCCAGGUUGUAGCUGUAACUGGUGAUGGUACAAAUGAUGGCCCAGCACUAAAGAACAACAGAGGAUUGAGCAUCA
B6: chr14:54957033:54957204:-|CDS|ENSG00000198554|control|control|control (ssRNA)
RNA: GGGAGUUCUACAGUCCGACGAUCGCACGUUCAACUAAUAUUUUAGACAAUAUGGGCAAAUCAUCCAAGAAAUCCACUGCACUUAGUCGAACUACAAAUAAUGAAAAGUCUCCCAUUAUAAAGCCUCUGAUUCCAAAGCCGAAGCAACAGAGGAUUGAGCAUCA
B7: ENSG00000130508:stop:overlap|stop_codon|ENSG00000130508|stop_codon|NA|stop_codon (ssRNA)
RNA: GGGAGUUCUACAGUCCGACGAUCUGAACAUCCCAGGGGCCUGCUGUCCAGUCUGCUUACAGAAGAGGGCGGAGGAAAAGCCCUAGGCUCCUGGGAGGCUCCUCAGAGUUUGUCUGCUGUGCCAUCGUGAGAUCGGGUGGCCGACAACAGAGGAUUGAGCAUCA
B8: chr9:123379744:123379845:-|3pUTR|ENSG00000119522|msi1|total|mutant (ssRNA)
RNA: GGGAGUUCUACAGUCCGACGAUCGUGUUUCAGCACCGAUUCCAGUUUCGCACCCUGGGCAGACCCCCAGGCCCCAUCCGGGACCGGGCAGAGGAGGUGCUGGCGGCCCCAGGGAAGGAGGGUGUGUACCCCAAGGCCCCCUGGCAACAGAGGAUUGAGCAUCA
B9: chr8:30843048:30843149:-|CDS|ENSG00000133863|unk|FALSE|unique (ssRNA)
RNA: GGGAGUUCUACAGUCCGACGAUCGGAUACUAUAAUUGCUUCCAGAAAGUCAGAUCAUCCAAUAAACGAAGCAACAAUUAGCAUAGAAAAUUCUAAAUUUAACAGUAAUUUGCUUGCACACCCAGAUAUUUGUUGUAUUAGUGACAACAGAGGAUUGAGCAUCA
B10: chr10:113876644:113876745:+|CDS|ENSG00000196865|msi1|total|mutant (ssRNA)
RNA: GGGAGUUCUACAGUCCGACGAUCGGUUAAUGAUGCAGAUGCCAGCCUUUGGCAAGAACCCGAAGUUUCCUGCUGGCCAACUCCCGUCAUACUUGGACCUCGUGGAAACAUGUUGUUUUCUUUGAUUGGAGAGGGACACAAAGACAACAGAGGAUUGAGCAUCA
B11: chr18:55226207:55226308:-|3pUTR|ENSG00000196628|unk|total|mutant (ssRNA)
RNA: GGGAGUUCUACAGUCCGACGAUCAUUUUUACAGCCACACAAUUCUUGGCAUGUAUUAAGAAAAAAAAAAAUCCCUGUUCAAGCCGUUUUUCCACCUAUCAGCACUGAGUAAAUGCCAUAAAUCCAUUGAAAUGGUCUAAAUGUCAACAGAGGAUUGAGCAUCA
B12: chr12:102196458:102196651:-|three_prime_utr|ENSG00000183395|control|control|control (ssRNA)
RNA: GGGAGUUCUACAGUCCGACGAUCGGAGAAGCCCAUACUGCUACUAUAACUUGUGUAUGUUAAAUGUCUGUUUUAAAAGAAAGUAGUGUUAAGAUGUAUCAGUAACUGAAAUGAUAUGCUUUCUCUGUGCAUUAAACUUUGUGACAACAGAGGAUUGAGCAUCA
B13: chr18:3066806:3067261:-|three_prime_utr|ENSG00000101605|control|control|control (ssRNA)
RNA: GGGAGUUCUACAGUCCGACGAUCAUGACACUUUAAUUGUUUUUCUUUAUCUACAAAAUUAUGUGUUAAGAAAAUACCAUUCAUAGCAUGAAGAUUAGGAAACAGUUUUAAGGAGAAGACUUGAAUGAAGUUGGAGGGACAUUGCAACAGAGGAUUGAGCAUCA
B14: chr9:34241424:34241533:+|CDS|ENSG00000165006|unk|total|mutant (ssRNA)
RNA: GGGAGUUCUACAGUCCGACGAUCAACCCCAUCCUCGCCAGCUUGCAGCACAACAGCAUCCUCACACCAACUCGGGUCAGCAGCCGUGCCACGAAACAGAAAGUUCUCAGCCCACCUCACAUAAAGGCGGAUUUCAAUCUUGCUCAACAGAGGAUUGAGCAUCA
B15: chr2:70656783:70663424:-|three_prime_utr|ENSG00000075340|control|control|control (ssRNA)
RNA: GGGAGUUCUACAGUCCGACGAUCUCUCUCCUCCCCUUCCCUUCUCCCAUCUCUGUCCCUGCAAGCACAGGGCUAAGGAGGGAUAGAGUAGGACCCUGGACCACAUUCGGAAGGGGAACUUAGAGAUCACCCGACCAACCCUUCCAACAGAGGAUUGAGCAUCA
B16: chr13:32775312:32775413:+|3pUTR|ENSG00000083642|unk|total|mutant (ssRNA)
RNA: GGGAGUUCUACAGUCCGACGAUCGAAACUUGUAAAUAUCUUUUUUCUUUUUUUUAAUGUUUCUGAUUUCUGAAGUGCUUGUACCGCUUUUAUCUGCGGCUUUAAACUGACAGUACCCGACUGUUUAUUGGAUCUAUUGAUUUGCAACAGAGGAUUGAGCAUCA
B17: ENSG00000107863:be:win_6101|3pUTR|ENSG00000107863|bound_else_gene|NA|bound_elsewhere_windowed (ssRNA)
RNA: GGGAGUUCUACAGUCCGACGAUCGCAAGGUAUUUGUUGCAACUUACUACAUAGCAUAUACCCAAAAUCACUGAAGAAAAUCGCUGGCAUCAGUGUGCAGCAAAUUUGUUCUUUUGGUUUCAUCACUAACAAAAGUGCCUCAUCCAACAGAGGAUUGAGCAUCA
B18: chr12:101746137:101746238:-|3pUTR|ENSG00000111670|msi1|total|mutant (ssRNA)
RNA: GGGAGUUCUACAGUCCGACGAUCGGUCCGUAAAUUAUUGCAGGCCACCUGUGUCUUUGUCAUACAUUCUUCUUGCUGUUGUUCCGUUUGUUUUUUUUCAAACAACCCUCUAAAAAUGUAAAAACCAUGUUCCGCUUGCAGCUGCAACAGAGGAUUGAGCAUCA
B19: chr1:66363429:66363538:+|CDS|ENSG00000184588|unk|FALSE|bound_elsewhere (ssRNA)
RNA: GGGAGUUCUACAGUCCGACGAUCAGACCUCCUAAAGACAUUCAGAAUCUCAUCUGACACAUUUAUAACCUACAUGAUGACUUUAGAAGACCAUUACCAUUCUGACGUGGCAUAUCACAACAGCCUGCACGCUGCUGAUGUAGCCAACAGAGGAUUGAGCAUCA
B20: chr9:88475159:88475277:+|CDS|ENSG00000106723|unk|FALSE|bound_elsewhere (ssRNA)
RNA: GGGAGUUCUACAGUCCGACGAUCACAAGUGGAAUAUGCCAAAGAAGAUGGCUCGAAAAGGACUGGCAUGGUCAUUCAUCAAGUAGAAGCCAAGCCCUCCGUCUAUUUCAUCAAGUUUGAUGAUGAUUUCCAUAUUUAUGUCUACAACAGAGGAUUGAGCAUCA
B21: chr10:5393100:5393516:-|three_prime_utr|ENSG00000178462|control|control|control (ssRNA)
RNA: GGGAGUUCUACAGUCCGACGAUCUGGGUGCAAAUGAAUGUCAAGUUAAAAUGGCAUGUUUUCUUUUCAAGCCGUUAUAUGCCUAGUGGGUAGUUCCCCUGAUGAGCAGAAAAAUGAACUCAAAUCAGGCAAGACUCUAGGUUCCAACAGAGGAUUGAGCAUCA
B22: chr4:175632990:175633131:-|3pUTR|ENSG00000150625|msi1|FALSE|unique (ssRNA)
RNA: GGGAGUUCUACAGUCCGACGAUCGUUGACACUUUUGGCUUUUAUUUCUGGUAUUAGAGUUUGUAUUUUCACAGAGUGCUUUGUAGCAGGCAUUACAAUUAAUCUGUUUUGUACAUAAAUGUGCCAACAGCUUGAUGGUGGCGUCAACAGAGGAUUGAGCAUCA

These binders were tested against MSI1 full-length (mouse, UniProt Q61474 1-362) (assay: nsRBNS (natural sequence RNA bind-n-seq); RBNS binding buffer (assumed for nsRBNS): 25 mM Tris pH 7.5, 150 mM KCl, 3 mM MgCl2, 0.01% Triton X-100, 500 ug/ml BSA, 20 U/ml SUPERase-In, 4 C; UNK is unkempt and MSI1 is Musashi-1; names of the RNAs are library labels; protein concentration not given here; high values mean tight binding).
Sequence of UniProt Q61474 (Q61474 whole entry): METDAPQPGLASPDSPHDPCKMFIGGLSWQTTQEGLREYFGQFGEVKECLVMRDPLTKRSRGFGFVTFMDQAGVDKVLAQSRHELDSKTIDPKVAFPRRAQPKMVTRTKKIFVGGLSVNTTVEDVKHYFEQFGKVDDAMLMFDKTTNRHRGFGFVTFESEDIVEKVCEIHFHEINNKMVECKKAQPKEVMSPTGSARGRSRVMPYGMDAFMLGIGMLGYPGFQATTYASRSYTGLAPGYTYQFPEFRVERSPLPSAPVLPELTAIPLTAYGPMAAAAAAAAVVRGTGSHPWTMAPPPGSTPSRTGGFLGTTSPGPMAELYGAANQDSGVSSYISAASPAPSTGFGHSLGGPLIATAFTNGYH

| Binder | binding signal [enrichment R] |
| --- | --- |
| B1 | 1.43 |
| B2 | 2.88 |
| B3 | 0.18 |
| B4 | 2.29 |
| B5 | 0.239 |
| B6 | 1.64 |
| B7 | 0.208 |
| B8 | 0.214 |
| B9 | 29.7 |
| B10 | 0.304 |
| B11 | 0.37 |
| B12 | 1.91 |
| B13 | 0.485 |
| B14 | 0.785 |
| B15 | 0.384 |
| B16 | 0.557 |
| B17 | 0.458 |
| B18 | 0.343 |
| B19 | 0.812 |
| B20 | 0.499 |
| B21 | 0.403 |
| B22 | 1.31 |
